Laboratory results taken from the supplement of paper PMC12632987.
Over roughly 4,500 sequences, “median log2 fold change of GCK-ALFA target abundance (FLAG IP / Myc IP barcode read proportion)” has its median near 0.078; the lowest 2% begin near -0.6. Some of the results follow.

B1: GBRAP_11_2839 (protein)
chain: KKEELKKLAEKAEKIAKELKKLIASGNPTKEELEKLLKEAKKFLEETEKSGDKAATKIAKILVEDIEEAIANPETQKEHLERALAAAEVLAGQYLLELEE
B2: GBRAP_184_5108 (protein)
chain: KTLNVVVEADTLEEARAKLRAAVAEAAAAGANLNVLLDLKGFSGEELVDLVREFGRAAREAGVPRVTLGITNDLDEETVDKLIKVADELGINLVLAIPDK
B3: GBRAP_52_6308 (protein)
chain: MEERAREAAERIVALVLAGDREGARALLREMAKNWSEEELLLIARALAELARTADEAELDAIAEAMLMMEDVLEEEGVDEEVIAEMLGIVTTAMYERELR
B4: GBRAP_160_4592 (protein)
chain: SMSLEELKKFIEEEFEEAKKLIEGQTAEERANIAAVTGGEIIMKLSENPNVSEELEDKVAEIFDELVAYILAHPDLTDEEIKKLIDEAEKKVKEALEKYF
B5: GBRAP_64_6484 (protein)
chain: MEEAEKLLEEAIAAAKAALKLLKDKNPEHAKKLKEAIKLLEEAKTADLETAEELLVEALDILNEVFKDPNISEEAKEEVALALDYVSAAIYEYSELIEEE
B6: GBRAP_160_4642 (protein)
chain: SPFVEELKKIVEEGTKIVLEYIDEGDLENALAAMRTMVGEVVMEMSEDPRFSDEDVDEMAKLGDKYVEKLEAAKGASKEELKKLVLEGAEELKKLIESFE
B7: GBRAP_195_5410 (protein)
chain: MKVVGRVLRIEESDTPEDILAKIEAIVAEVKEESNGDLVLVVARHPSVPEETVRAAVAEAAERYPEIKITVEIFDDISLPLETLEAFARMEVANEEEERE
B8: GBRAP_150_3924 (protein)
chain: SLEELKTILDTAIDLIEGIADGELSLVPHALKLVEAALEEAEELPEEVREPVKKLLTEVIKNLKKIAAGAPEEERKKLIEEALAKLKEALKIVEKLIEEE
B9: GBRAP_128_3450 (protein)
chain: SVEEAAAHAREVMERIKASDLETARELAEELAAWLATLSDEEAAAAMDTLEELAPELSAEKLEILADVLRAALPGLSPEKARLAADAEVTFLNEAEEKEE
B10: GBRAP_128_3348 (protein)
chain: LDEEVLAEAEELIEKILASDVETARELTKELVELIGKATPEEQEAIVALLEEALPKLSAEKLEAVADALREQRPKLSPYAANLVAGLEVEALNLAVEKEE
B11: GBRAP_11_2907 (protein)
chain: KKEELKKAAKLAEEAAKLLEKLKKEGEKDEKLWKEAEKALKELKKLVKKYLDESDAELAEEALKLLKEAKKDPKNAQQYLDEALATTRVLKGQILLAIEE
B12: GBRAP_52_6319 (protein)
chain: MKEEAKKLAEELVKLVKEGKLEEARKLAKEIAKTKSEEFLEEIAKVLAEMAKTANEEEIDAIVEAAEILADELIEEGYDEAFASDILARVAKAAYENSLK
B13: GBRAP_78_6694 (protein)
chain: EVEELLDEALKYLGEAARILAKMNTPEANDLLGKVIDVASTVEEAQFGEANLEELEEALKKLKEALEEAKKLPTPEAKEAAKYLEKAIEKLEKAIKLLKE
B14: GBRAP_184_5325 (protein)
chain: EVIRKVIEVETKEEAKEKLEELEKEALKSGKKYLVIIELKNPTKELIKTVAEKIKEMKEKGVDAEFIVVIDDPMDEELTDIAVEEFSKAGAKVVLALEDS
B15: GBRAP_160_4615 (protein)
chain: MEKIEELIKFVKEEFEEAKKMVEGETAEQRATIVDVTFGKIIIEADELEVVSDESLDEIDEIRDEVVATILANPDLTDEEVKELIEEAEKKVIEIIKKDE
B16: GBRAP_39_5665 (protein)
chain: EEEEENEDVVSYLEGVAAGYLYETGISLEEAFKRAKEILEKYAEEHPELKELIEELIELAEKKGEEAKLALIGVAVLIEEGTPKEEIKEMIEKVIKYFKK
B17: GBRAP_52_5845 (protein)
chain: MREEAEKLAKELVELAKEGKEEELEAKIKEIVETKSEEEVMLILEELARLAKEADPETAEVIWEVAEKLAEKALEAGFDEMELSLGLALVGAAVYEAQQR
B18: GBRAP_39_5632 (protein)
chain: EEEEELELLRSYAEADLAARQVKTGLPLEELFAELYAEARAAAADDPELLAAFERLVELAEKHGPEARERAAAIFAAYLAGLPREDVLRLARAEIEELEA
B19: GBRAP_52_6183 (protein)
chain: MREELRRRLEEIHELVKAGRLEEARALARELVESLSEEEARLLVEVAAELTRELPLEDLDAAFEMAEILAEAMVEAGFDEVLAEDLLAAVAAAMYEKELA

These binders were tested against GABARAP, O95166 (assay: median log2 fold change of GCK-ALFA target abundance (FLAG IP / Myc IP barcode read proportion) (log2 ratio); each designed protein is fused to an ALFA-tag nanobody in HEK293 cells to bring the named protein to FLAG-tagged glucokinase (GCK); Myc marks an untargeted standard; higher = target protein stabilised (more abundant)). Details: target protein: 3xFLAG-MCP-GCK-ALFA reporter; HEK293 landing pad (RPLP).
Chain of GABARAP, O95166 (O95166 whole entry, the tested form may be a part): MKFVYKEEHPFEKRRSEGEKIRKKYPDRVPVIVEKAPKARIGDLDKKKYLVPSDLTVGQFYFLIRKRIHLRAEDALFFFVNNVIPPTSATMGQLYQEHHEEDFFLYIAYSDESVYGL
Outline: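 HEK293 landing-pad cells received a recombined binder library fused to the ALFA nanobody and were induced with 2 μg mL^−1 doxycycline, then transfected with a plasmid encoding a FLAG-tagged target and a Myc-tagged standard. Lysates were collected after 48 h for anti-FLAG and anti-Myc immunoprecipitation, and the circular RNA barcodes were reverse transcribed, amplified and sequenced. Target abundance for each binder is the median log2 ratio of FLAG to Myc barcode read proportions. Barcodes had to reach a proportion of at least 10^−7 in both replicates, each binder needed at least 3 barcodes per replicate, a pseudocount of 10^−6 was applied, and the two replicates were pooled.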
For B1, the “median log2 fold change” value was 0.0853.
B2 was tested, and the “median log2 fold change” value was 0.0784.
In the case of B3, the “median log2 fold change” value is reported as -0.4.
B4 was tested, and the “median log2 fold change” value was 0.132.
With B5 the “median log2 fold change” value was -0.0168.
With B6 the “median log2 fold change” value was 0.27.
With B7 the “median log2 fold change” value was 0.261.
B8 was tested, and the “median log2 fold change” value was 0.131.
B9 was tested, and the “median log2 fold change” value was 0.257.
In the case of B10, the “median log2 fold change” value is reported as 0.0541.
For B11, the “median log2 fold change” value was 0.212.
With B12 the “median log2 fold change” value was -0.00096.
B13 was tested, and the “median log2 fold change” value was 0.11.
In the case of B14, the “median log2 fold change” value is reported as 0.0754.
For B15, the “median log2 fold change” value was -0.181.
B16 was tested, and the “median log2 fold change” value was 0.179.
For B17, the “median log2 fold change” value was -0.0463.
For B18, the “median log2 fold change” value was 0.196.
B19 was tested, and the “median log2 fold change” value was 0.0453.
